Source: the supplement of paper PMC4967469
A lower IC50 marks a more sensitive line; where the fit passes the top or lowest dose, that dose stands as a limit. The AUC spans the tested range (256-fold, ending at the top dose) of the same fit; it is 1 without any effect and falls as sensitivity rises. For part of these data: The top dose, if marked as inferred, is not printed in the source and was worked back from the curve model. For part of these data: Drugs with an entry number were screened twice under separate entries, and the two screens often disagree.

What was measured:
Experiment in all cases: Viability of human cancer cell lines after 72 h of drug (GDSC screen)
CUDC-101 = compound: C#Cc1cccc(Nc2ncnc3cc(OC)c(OCCCCCCC(=O)NO)cc23)c1 [CUDC-101]; settings: top dose 5.12 µM; top dose inferred
Protocol: (§1)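 Human cancer cell lines in 384-well plates, medium with 10% serum, drug for 72 h over a 256-fold dose range (nine 2-fold or five 4-fold steps up to the top dose). Adherent lines were fixed and stained with the nucleic acid dye Syto60, suspension lines read with resazurin; signal relative to control wells, capped at 0 and 100%. One two-parameter sigmoid per drug and line, fitted in a mixed model over all curves with the slope shared within a line.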

AC220 = compound: CC(C)(C)c1cc(NC(=O)Nc2ccc(-c3cn4c(n3)sc3cc(OCCN5CCOCC5)ccc34)cc2)no1 [AC220]; settings: top dose 1.024 µM; top dose inferred
Protocol: as §1

JNK-9L = compound: Fc1cc(-c2ccnc(Nc3ccc(-n4cnc(N5CCOCC5)n4)cc3)n2)cc(N2CCOCC2)c1 [JNK-9L]; settings: top dose 5.12 µM; top dose inferred
Protocol: as §1

OSU-03012 = compound: NCC(=O)Nc1ccc(-n2nc(C(F)(F)F)cc2-c2ccc3c(ccc4ccccc43)c2)cc1 [OSU-03012]; settings: top dose 16 µM; top dose inferred
Protocol: as §1

5-Fluorouracil = compound: O=c1[nH]cc(F)c(=O)[nH]1 [5-Fluorouracil]; settings: top dose 32 µM; top dose inferred
Protocol: as §1

QS11 = compound: OC[C@H](Cc1ccccc1)Nc1nc(Oc2ccc3c(c2)CCC3)nc2c1ncn2Cc1ccc(-c2ccccc2)cc1 [QS11]; settings: top dose 10.24 µM
Protocol: as §1

RDEA119 = compound: COc1cc(F)c(F)c(Nc2ccc(I)cc2F)c1NS(=O)(=O)C1(C[C@H](O)CO)CC1 [RDEA119]; settings: top dose 5 µM, top dose inferred
Protocol: as §1

| Cell Line | AUC (CUDC-101) | IC50 (CUDC-101) | AUC (AC220) | IC50 (AC220) | AUC (JNK-9L) | IC50 (JNK-9L) | AUC (OSU-03012) | IC50 (OSU-03012) | AUC (5-Fluorouracil) | IC50 (5-Fluorouracil) | AUC (QS11) | IC50 (QS11) | AUC (RDEA119; screen: GDSC drug entry 1014) | IC50 (RDEA119; screen: GDSC drug entry 1014) | AUC (RDEA119; screen: GDSC drug entry 1526) | IC50 (RDEA119; screen: GDSC drug entry 1526) |
| --- | --- | --- | --- | --- | --- | --- | --- | --- | --- | --- | --- | --- | --- | --- | --- | --- |
| A2058 (melanoma, adherent) | 0.868 | 3.85 µM | 0.989 | > 1.02 µM | 0.573 | 0.496 µM | 0.584 | 1.66 µM | 0.988 | > 32 µM | 0.886 | 9.18 µM | – | – | – | – |
| BC-3 (B-cell lymphoma, suspension) | 0.477 | 0.278 µM | 0.985 | > 1.02 µM | 0.595 | 0.565 µM | 0.772 | 5.54 µM | 0.439 | 1.39 µM | 0.872 | 8 µM | – | – | – | – |
| BICR31 (head and neck, adherent) | 0.465 | 0.256 µM | 0.985 | > 1.02 µM | 0.619 | 0.681 µM | 0.758 | 5.6 µM | 0.967 | > 32 µM | 0.979 | > 10.2 µM | – | – | – | – |
| CAL-148 (breast, suspension) | 0.398 | 0.172 µM | 0.983 | > 1.02 µM | 0.636 | 0.736 µM | 0.854 | 11.1 µM | 0.381 | 0.967 µM | 0.944 | > 10.2 µM | – | – | – | – |
| COLO-829 (melanoma, adherent) | 0.633 | 0.887 µM | 0.962 | > 1.02 µM | 0.574 | 0.561 µM | 0.978 | > 16 µM | 0.956 | > 32 µM | 0.948 | > 10.2 µM | – | – | – | – |
| COR-L88 (small cell lung carcinoma, adherent) | – | – | 0.977 | > 1.02 µM | 0.809 | 3.32 µM | 0.951 | > 16 µM | 0.966 | > 32 µM | 0.83 | 8.2 µM | 0.976 | > 5 µM | 0.982 | > 5 µM |
| CTB-1 (B-cell lymphoma, suspension) | – | – | 0.968 | > 1.02 µM | 0.617 | 0.757 µM | 0.741 | 6.42 µM | 0.697 | 8.87 µM | 0.855 | > 10.2 µM | 0.978 | > 5 µM | 0.975 | > 5 µM |
| Caov-3 (ovary, adherent) | 0.771 | 1.74 µM | 0.991 | > 1.02 µM | 0.785 | 1.92 µM | 0.877 | 12.8 µM | 0.751 | 9.42 µM | 0.989 | > 10.2 µM | – | – | – | – |
| DOK (head and neck, adherent) | – | – | 0.976 | > 1.02 µM | 0.609 | 0.739 µM | 0.921 | > 16 µM | 0.973 | > 32 µM | 0.976 | > 10.2 µM | 0.397 | 0.142 µM | – | – |
| EB-3 (Burkitt lymphoma, suspension) | – | – | 0.982 | > 1.02 µM | 0.602 | 0.639 µM | 0.765 | 6.79 µM | 0.904 | > 32 µM | 0.962 | > 10.2 µM | 0.984 | > 5 µM | 0.974 | > 5 µM |
